From the supplement of paper PMC4604168 (melanoma cell lines)
This is one part of the list. Most values come without repeats; read them as rough.

Legend:
Test in all cases: cell count relative to DMSO control; melanoma cells; higher = more viable cells
Conditions in all cases: library dose: low library concentration; 72 h
COLO792 = test system: COLO792
COLO800 = test system: COLO800
COLO829 = test system: COLO829
G361 = test system: G361
IPC-298 = test system: IPC-298
IST-MEL1 = test system: IST-MEL1
LB2518-MEL = test system: LB2518-MEL
LOXIMVI = test system: LOXIMVI
MEL-HO = test system: MEL-HO
MZ2-MEL = test system: MZ2-MEL
MeWo = test system: MeWo
RPMI7951 = test system: RPMI7951
RVH-421 = test system: RVH-421
SkMel28 = test system: SkMel28
SkMel2 = test system: SkMel2
SkMel30 = test system: SkMel30
SkMel5 = test system: SkMel5
UACC257 = test system: UACC257
UACC62 = test system: UACC62
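Note: cell number obtained by counting DAPI-stained nuclei in high-throughput microscope images with image analysis software, screen run in 1,536-well plates.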

SMILES	cell count (COLO792)	cell count (COLO800)	cell count (COLO829)	cell count (G361)	cell count (IPC-298)	cell count (IST-MEL1)	cell count (LB2518-MEL)	cell count (LOXIMVI)	cell count (MEL-HO)	cell count (MZ2-MEL)	cell count (MeWo)	cell count (RPMI7951)	cell count (RVH-421)	cell count (SkMel28)	cell count (SkMel2)	cell count (SkMel30)	cell count (SkMel5)	cell count (UACC257)	cell count (UACC62)
N.N.[Cl][Pt][Cl] [cisplatin] + CN(C)S(=O)(=O)c1ccc2c(c1)/C(=C/c1cc3c([nH]1)CCCC3)C(=O)N2 [SU6656] (first compound 1.6 µM, partner dose 0.4 µM)	91.1%	117%	110%	85.3%	105%	90.5%	82.8%	85.9%	89.7%	106%	97.4%	93.2%	82%	87.6%	97.2%	99.8%	93.4%	65.8%	74.6%
C[C@]12O[C@H](C[C@]1(O)CO)n1c3ccccc3c3c4c(c5c6ccccc6n2c5c31)CNC4=O [Lestaurtinib] + O=C(CCCCCCC(=O)Nc1ccccc1)NO [vorinostat] (first compound 0.004 µM, partner dose 0.08 µM)	98%	121%	77.8%	96.9%	108%	98.7%	105%	95%	89.4%	103%	78.9%	98.8%	90.6%	78.4%	–	74.8%	104%	72.5%	86.1%
Cn1cc(C2=C(c3cn(C4CCN(Cc5ccccn5)CC4)c4ccccc34)C(=O)NC2=O)c2ccccc21 [Enzastaurin] + c1cc(-c2cnn3cc(-c4ccc(OCCN5CCCCC5)cc4)cnc23)ccn1 [Dorsomorphin] (first compound 0.8 µM, partner dose 0.4 µM)	102%	91.5%	132%	102%	107%	103%	96.6%	79.1%	99.3%	101%	124%	73%	88.3%	119%	119%	114%	103%	114%	109%
C[C@]12O[C@H](C[C@]1(O)CO)n1c3ccccc3c3c4c(c5c6ccccc6n2c5c31)CNC4=O [Lestaurtinib] + CCN(CC)CCCCNc1ncc2cc(-c3cc(OC)cc(OC)c3)c(NC(=O)NC(C)(C)C)nc2n1 [PD173074] (first compound 0.004 µM, partner dose 0.1 µM)	86.7%	89.6%	117%	98.2%	93.5%	104%	108%	88.9%	82.7%	103%	106%	103%	97.5%	88.5%	–	89.2%	107%	83%	87.7%
C[C@]12O[C@H](C[C@]1(O)CO)n1c3ccccc3c3c4c(c5c6ccccc6n2c5c31)CNC4=O [Lestaurtinib] + CO[C@@H]1[C@H](N(C)C(=O)c2ccccc2)C[C@H]2O[C@]1(C)n1c3ccccc3c3c4c(c5c6ccccc6n2c5c31)C(=O)NC4 [Midostaurin] (first compound 0.004 µM, partner dose 0.08 µM)	95.3%	103%	97.7%	89.3%	102%	106%	96.6%	145%	106%	95.2%	81.2%	81%	86.8%	85.4%	–	95%	83.8%	57.2%	86.7%
N.N.[Cl][Pt][Cl] [cisplatin] + O=C(O)C(=O)Nc1sc2c(c1C(=O)O)CCNC2 [TCS401] (first compound 1.6 µM, partner dose 1.66667 µM)	94%	155%	88.3%	83.1%	90.6%	109%	110%	77.8%	89.6%	97.1%	92.2%	98.7%	95.9%	90.3%	94.5%	73.3%	90.5%	94.3%	75%
N.N.[Cl][Pt][Cl] [cisplatin] + CN(NC(=O)CC(=O)NN(C)C(=S)c1ccccc1)C(=S)c1ccccc1 [STA4783] (first compound 1.6 µM, partner dose 0.006 µM)	85.7%	90.7%	88.1%	104%	105%	98.3%	91.9%	101%	103%	104%	107%	108%	91.5%	96%	104%	98.5%	99.5%	102%	87.7%
Cn1cc(C2=C(c3cn(C4CCN(Cc5ccccn5)CC4)c4ccccc34)C(=O)NC2=O)c2ccccc21 [Enzastaurin] + NCC(=O)Nc1ccc(-n2nc(C(F)(F)F)cc2-c2ccc3c(ccc4ccccc43)c2)cc1 [OSU03012] (first compound 0.8 µM, partner dose 1 µM)	87.7%	84.7%	93.2%	98.2%	95.6%	84%	94.9%	93.5%	101%	99%	64.7%	88.4%	72.2%	91.1%	86.2%	61.3%	93.1%	100%	87.4%
N.N.[Cl][Pt][Cl] [cisplatin] + C[C@@H]1CCN(C(=O)CC#N)C[C@@H]1N(C)c1ncnc2[nH]ccc12 [CP690550] (first compound 1.6 µM, partner dose 1 µM)	98.8%	130%	90.2%	100%	101%	97.4%	89.3%	88%	104%	101%	91.9%	111%	92.7%	90.7%	92.6%	104%	84.3%	98.8%	86%
C[As](C)SC[C@H](NC(=O)CC[C@H](N)C(=O)O)C(=O)NCC(=O)O [Darinaparsin] + CO[C@@H]1[C@H](N(C)C(=O)c2ccccc2)C[C@H]2O[C@]1(C)n1c3ccccc3c3c4c(c5c6ccccc6n2c5c31)C(=O)NC4 [Midostaurin] (first compound 0.4 µM, partner dose 0.08 µM)	100%	82.6%	83%	93.3%	94.6%	97.1%	95.5%	95.3%	89.5%	98.2%	84.6%	90.9%	81.2%	74.8%	80.5%	123%	95.1%	80.3%	87%
C[C@]12O[C@H](C[C@]1(O)CO)n1c3ccccc3c3c4c(c5c6ccccc6n2c5c31)CNC4=O [Lestaurtinib] + Oc1cc(-c2nc(-c3ccccc3)[nH]c2-c2ccncc2)ccc1Cl [L779450] (first compound 0.004 µM, partner dose 0.2 µM)	106%	85.8%	119%	88.1%	80.7%	101%	91.4%	151%	90.1%	89.9%	91.9%	121%	94.6%	85.9%	–	70.2%	116%	77%	50.3%
C[C@]12O[C@H](C[C@]1(O)CO)n1c3ccccc3c3c4c(c5c6ccccc6n2c5c31)CNC4=O [Lestaurtinib] + COc1cc2ncnc(Nc3ccc(Oc4ccccc4)cc3)c2cc1OC [SrcI1] (first compound 0.004 µM, partner dose 2 µM)	97.6%	157%	114%	90.8%	93%	103%	116%	152%	97.2%	88.3%	84%	129%	74.1%	90.9%	–	86.8%	104%	78.4%	79.5%
C[C@]12O[C@H](C[C@]1(O)CO)n1c3ccccc3c3c4c(c5c6ccccc6n2c5c31)CNC4=O [Lestaurtinib] + COc1cc(N2CCC(N3CCN(C)CC3)CC2)ccc1Nc1ncc(Cl)c(Nc2ccccc2S(=O)(=O)C(C)C)n1 [NVP-TAE684] (first compound 0.004 µM, partner dose 0.08 µM)	95%	114%	81.9%	95.5%	97.5%	108%	108%	126%	103%	101%	86.8%	108%	80.4%	85.6%	–	65%	86%	92.2%	80.2%
C[C@]12O[C@H](C[C@]1(O)CO)n1c3ccccc3c3c4c(c5c6ccccc6n2c5c31)CNC4=O [Lestaurtinib] + Cc1cc(N2CCOCC2)cc2[nH]c(-c3c(NC[C@@H](O)c4cccc(Cl)c4)cc[nH]c3=O)nc12 [BMS536924] (first compound 0.004 µM, partner dose 0.2 µM)	73.6%	55%	96.2%	110%	102%	96.4%	82.5%	40.3%	98.2%	98%	82.7%	112%	109%	93.2%	–	64.7%	83.2%	71.5%	102%
